In the supplement of paper PMC12217912:
Some of the results follow. Sequences were assembled here from the parent chain. Values near 0.05 are background.

B1: TEV protease; numbered along this chain (parent)
chain: MGESLFKGPRDYNPISSSICHLTNESDGHTTSLYGIGFGPFIITNKHLFRRNNGTLVVQSLHGVFKVKDTTTLQQHLVDGRDMIIIRMPKDFPPFPQKLKFREPQREERICLVTTNFQTKSMSSMVSDTSCTFPSGDGIFWKHWIQTKDGQCGSPLVSTRDGFIVGIHSASNFTNTNNYFTSVPKNFMELLTNQEAQQWVSGWRLNADSVLWGGHKVFMVKPEEPFQPVKEATQL

Variants of: B1
Experiment: raw area under fraction-flipped curve 0-4 h after induction (AUC4h, not background-subtracted), DNA-recorder readout of cleavage of the substrate (dimensionless); higher = more cleavage of the substrate by the protease variant
Conditions: temperature: 34 °C; time window: 0-4 h after rhamnose induction
Method: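 In vivo DNA recorder in E. coli TOP10(DE3) ΔrhaA at 34 °C. Each TEVp single-site mutant (parent TEVp 0) is paired with a single-site variant of the 7-mer TEVs (canonical ENLYFQ|S). The substrate sits between flexible linkers in a Bxb1-sfGFP-TEVs-SsrA fusion, so cleavage stabilises Bxb1 and speeds flipping of a recombination array, read by NGS. The value is the raw area under the fraction-flipped curve over 0-4 h after rhamnose induction (AUC4h), with ≥20 reads per time point. It is not background-subtracted; inactive controls average about 0.047.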
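Further: Bxb1 expression induced with 0.2% (w/v) L-rhamnose at OD600 near 0.5, cultures sampled hourly, flipped fraction per protease–substrate barcode pair counted by paired-end Illumina sequencing.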

## G166S
  area with substrate ENLYFAS: 0.0499
  area with substrate ENLYFCS: 0.0338
  area with substrate ENLYFES: 0.0316
  area with substrate ENLYFFS: 0.0582
  area with substrate ENLYFGS: 0.0385
  area with substrate ENLYFIS: 0.0558
  area with substrate ENLYFLS: 0.0343
  area with substrate ENLYFMS: 0.049
  area with substrate ENLYFNS: 0.0442
  area with substrate ENLYFPS: 0.0441
  area with substrate ENLYFRS: 0.03
  area with substrate ENLYFTS: 0.0323
  area with substrate ENLYFWS: 0.0627
  area with substrate ENLYFYS: 0.0484

## G28S
  area with substrate ENLYFAS: 0.063
  area with substrate ENLYFCS: 0.0516
  area with substrate ENLYFDS: 0.0567
  area with substrate ENLYFES: 0.0669
  area with substrate ENLYFFS: 0.0665
  area with substrate ENLYFHS: 0.0544
  area with substrate ENLYFIS: 0.0552
  area with substrate ENLYFKS: 0.0541
  area with substrate ENLYFLS: 0.0616
  area with substrate ENLYFMS: 0.0637
  area with substrate ENLYFNS: 0.0633
  area with substrate ENLYFPS: 0.0659
  area with substrate ENLYFRS: 0.0648
  area with substrate ENLYFSS: 0.0569
  area with substrate ENLYFTS: 0.0596
  area with substrate ENLYFVS: 0.0579
  area with substrate ENLYFYS: 0.0552

## Q146N
  area with substrate ENLYFAS: 0.0583
  area with substrate ENLYFCS: 0.0457
  area with substrate ENLYFES: 0.0709
  area with substrate ENLYFFS: 0.0544
  area with substrate ENLYFGS: 0.0562
  area with substrate ENLYFHS: 0.0539
  area with substrate ENLYFIS: 0.0595
  area with substrate ENLYFKS: 0.0693
  area with substrate ENLYFLS: 0.0496
  area with substrate ENLYFMS: 0.0663
  area with substrate ENLYFRS: 0.0249
  area with substrate ENLYFTS: 0.0708
  area with substrate ENLYFVS: 0.054
  area with substrate ENLYFYS: 0.0588

## T114M
  area with substrate ENLYFAS: 0.0726
  area with substrate ENLYFDS: 0.0517
  area with substrate ENLYFES: 0.0874
  area with substrate ENLYFFS: 0.0655
  area with substrate ENLYFIS: 0.0701
  area with substrate ENLYFMS: 0.0563
  area with substrate ENLYFNS: 0.0715
  area with substrate ENLYFPS: 0.0634
  area with substrate ENLYFRS: 0.0389
  area with substrate ENLYFTS: 0.0608
  area with substrate ENLYFVS: 0.0399
  area with substrate ENLYFWS: 0.0554

## I42W
  area with substrate ENLYFAS: 0.0399
  area with substrate ENLYFCS: 0.0514
  area with substrate ENLYFDS: 0.0466
  area with substrate ENLYFES: 0.0491
  area with substrate ENLYFFS: 0.0644
  area with substrate ENLYFHS: 0.0641
  area with substrate ENLYFIS: 0.0453
  area with substrate ENLYFKS: 0.0477
  area with substrate ENLYFLS: 0.0539
  area with substrate ENLYFMS: 0.0478
  area with substrate ENLYFNS: 0.0441
  area with substrate ENLYFPS: 0.0422
  area with substrate ENLYFRS: 0.0442
  area with substrate ENLYFSS: 0.031
  area with substrate ENLYFVS: 0.0433
  area with substrate ENLYFWS: 0.0498
  area with substrate ENLYFYS: 0.0374

## T44Q
  area with substrate ENLYFAS: 0.0271
  area with substrate ENLYFCS: 0.0384
  area with substrate ENLYFES: 0.0332
  area with substrate ENLYFFS: 0.0511
  area with substrate ENLYFGS: 0.0552
  area with substrate ENLYFHS: 0.0411
  area with substrate ENLYFIS: 0.0348
  area with substrate ENLYFMS: 0.047
  area with substrate ENLYFNS: 0.0199
  area with substrate ENLYFPS: 0.0493
  area with substrate ENLYFRS: 0.0368
  area with substrate ENLYFVS: 0.033
  area with substrate ENLYFWS: 0.0411
  area with substrate ENLYFYS: 0.0424

## I139N
  area with substrate ENLYFAS: 0.0319
  area with substrate ENLYFCS: 0.0524
  area with substrate ENLYFES: 0.0625
  area with substrate ENLYFFS: 0.0562
  area with substrate ENLYFIS: 0.0546
  area with substrate ENLYFKS: 0.068
  area with substrate ENLYFLS: 0.0571
  area with substrate ENLYFMS: 0.0658
  area with substrate ENLYFPS: 0.0565
  area with substrate ENLYFRS: 0.0682
  area with substrate ENLYFSS: 0.0999
  area with substrate ENLYFTS: 0.0796
  area with substrate ENLYFVS: 0.0638
  area with substrate ENLYFWS: 0.0566
  area with substrate ENLYFYS: 0.0511

## Q74H
  area with substrate ENLYFAS: 0.0634
  area with substrate ENLYFCS: 0.0665
  area with substrate ENLYFHS: 0.0564
  area with substrate ENLYFIS: 0.0659
  area with substrate ENLYFMS: 0.0761
  area with substrate ENLYFNS: 0.0681
  area with substrate ENLYFPS: 0.0373
  area with substrate ENLYFRS: 0.0687
  area with substrate ENLYFVS: 0.0524
  area with substrate ENLYFYS: 0.0593

## P94Q
  area with substrate ENLYFAS: 0.0686
  area with substrate ENLYFCS: 0.0571
  area with substrate ENLYFDS: 0.0707
  area with substrate ENLYFES: 0.0594
  area with substrate ENLYFFS: 0.0797
  area with substrate ENLYFGS: 0.0638
  area with substrate ENLYFIS: 0.05
  area with substrate ENLYFKS: 0.0546
  area with substrate ENLYFLS: 0.0547
  area with substrate ENLYFMS: 0.0668
  area with substrate ENLYFNS: 0.0897
  area with substrate ENLYFPS: 0.0677
  area with substrate ENLYFRS: 0.0649
  area with substrate ENLYFSS: 0.068
  area with substrate ENLYFTS: 0.0622
  area with substrate ENLYFVS: 0.0721
  area with substrate ENLYFWS: 0.0547
  area with substrate ENLYFYS: 0.0633

## T132G
  area with substrate ENLYFAS: 0.0646
  area with substrate ENLYFCS: 0.0602
  area with substrate ENLYFDS: 0.0446
  area with substrate ENLYFES: 0.0557
  area with substrate ENLYFFS: 0.072
  area with substrate ENLYFGS: 0.0898
  area with substrate ENLYFHS: 0.0442
  area with substrate ENLYFIS: 0.0573
  area with substrate ENLYFKS: 0.0597
  area with substrate ENLYFMS: 0.0608
  area with substrate ENLYFNS: 0.0675
  area with substrate ENLYFPS: 0.0589
  area with substrate ENLYFVS: 0.0619
  area with substrate ENLYFWS: 0.0694
  area with substrate ENLYFYS: 0.0562

## R204N
  area with substrate ENLYFAS: 0.0601
  area with substrate ENLYFCS: 0.0558
  area with substrate ENLYFDS: 0.0629
  area with substrate ENLYFES: 0.0539
  area with substrate ENLYFFS: 0.0669
  area with substrate ENLYFHS: 0.0659
  area with substrate ENLYFIS: 0.059
  area with substrate ENLYFKS: 0.0589
  area with substrate ENLYFMS: 0.0562
  area with substrate ENLYFPS: 0.0592
  area with substrate ENLYFRS: 0.0454
  area with substrate ENLYFSS: 0.049
  area with substrate ENLYFTS: 0.0654
  area with substrate ENLYFVS: 0.013
  area with substrate ENLYFWS: 0.0581
  area with substrate ENLYFYS: 0.0562

## D79V
  area with substrate ENLYFAS: 0.0649
  area with substrate ENLYFFS: 0.0651
  area with substrate ENLYFGS: 0.0358
  area with substrate ENLYFHS: 0.0189
  area with substrate ENLYFIS: 0.033
  area with substrate ENLYFNS: 0.0713
  area with substrate ENLYFPS: 0.0672
  area with substrate ENLYFSS: 0.0501
  area with substrate ENLYFTS: 0.0473
  area with substrate ENLYFVS: 0.0774
  area with substrate ENLYFYS: 0.0667
